Experimental findings from the supplement of paper PMC11880418 are described below.

Counter-ions that a name gives are not always drawn. The list shows a part of the results. The data scatter; read single values as rough. Non-standard residues stand in square brackets, D forms with d. Residues, ends and D or L forms follow the SMILES beside them. *: point of attachment. Sta = CC(C)C[C@H](N)[C@@H](O)CC(=O)O; Isovaleryl = CC(C)CC(=O)*
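Further: High-content imaging of ALDEFLUOR-stained cells with Hoechst-labelled nuclei in 384-well plates, triplicate wells, scored as Z-score against 0.1% DMSO vehicle, negative meaning fewer ALDHbr cells.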

The subject of this test is PANC1. Nature of the test: ALDHbr (CSC) cell proportion score relative to DMSO vehicle (ratio to DMSO); breast (SUM159) / gastric (MKN45) / pancreatic (PANC1) / colon cancer lines; ALDHbr cells have high ALDH activity and are rich in cancer stem cells (CSC); higher = more CSC (ALDHbr) cells remaining. The note with it: 10 µM; 72 h.
On to `CN(C)[C@@H]1C(=O)C(C(=O)NCNCCCC[C@H](N)C(=O)O)=C(O)[C@@]2(O)C(=O)C3=C(O)c4c(O)cccc4[C@@](C)(O)[C@H]3C[C@@H]12` [Lymecycline], for which the ALDHbr turned out to be 0.618. For `CC(C(=O)O)c1ccc(C(=O)c2ccccc2)s1` (stereo unspecified) [Tiaprofenic acid], the ALDHbr stood at 0.937. In the case of `CCN(CC)CCc1nc(-c2ccccc2)no1` [Oxalamine citrate salt], the ALDHbr turned out to be 0.777. In the case of `Cc1cc(=O)oc2cc(O)ccc12` [Hymecromone] it was 0.839; in that of `NCCCCCC(=O)O` [Aminocaproic acid], 0.776. With `CC1=Nc2ccc(Cl)cc2S(=O)(=O)N1` [Diazoxide] the figure was 0.705; with `CC(Oc1c(Cl)cccc1Cl)C1=NCCN1` (stereo unspecified) [Lofexidine], 0.919; with `CC(=O)OCC1=C(C(=O)O)N2C(=O)[C@@H](NC(=O)Cc3cccs3)[C@H]2SC1` [Cephalothin sodium salt], 0.806. In the case of `CC(C(=O)O)c1ccc2c(c1)[nH]c1ccc(Cl)cc12` (stereo unspecified) [Carprofen] it was 0.939; in that of `CC(C)NC[C@H](O)COc1cccc2ccccc12` [(S)-propranolol hydrochloride], 1.04; in that of `CC(C)CC(=O)N[C@H](C(=O)N[C@H](C(=O)N[C@@H](CC(C)C)[C@@H](O)CC(=O)N[C@@H](C)C(=O)N[C@@H](CC(C)C)[C@@H](O)CC(=O)O)C(C)C)C(C)C` [Pepstatin A] (Isovaleryl-VV[Sta]A[Sta]-OH), 0.849. `COCCOC(=O)C1=C(C)NC(C)=C(C(=O)OC/C=C/c2ccccc2)C1c1cccc([N+](=O)[O-])c1` (stereo unspecified) [Cilnidipine]: the ALDHbr was determined as 0.736. With `CCOC(=O)C1=C[C@]2(CC)CCCN3CCc4c(n1c1ccccc41)[C@@H]32` [Vinpocetine] the figure was 1.02; with `NS(=O)(=O)c1cc(C(=O)O)cc(N2CCCC2)c1Oc1ccccc1` [Piretanide], 1.03; with `CN[C@@H]1[C@H](O[C@H]2[C@H](O[C@H]3[C@H](O)[C@@H](O)[C@H](N=C(N)N)[C@@H](O)[C@@H]3N=C(N)N)O[C@@H](C)[C@]2(O)C=O)O[C@@H](CO)[C@H](O)[C@H]1O` [Streptomycin sulfate], 0.81. In the case of `CN1CCC(=C2c3ccccc3CCc3sccc32)CC1` [Pizotifen malate] it was 1.08; in that of `Cc1cc(-n2c(=O)[nH]c(=O)n(C)c2=O)ccc1Oc1ccc(SC(F)(F)F)cc1` [Toltrazuril], 0.921; in that of `NCCCC(O)(P(=O)(O)O)P(=O)(O)O` [Alendronate sodium], 0.811.

Regarding `C#C[C@]1(OC(C)=O)CC[C@H]2[C@@H]3CCC4=CC(=NO)CC[C@@H]4[C@H]3CC[C@@]21CC` (mixture of isomers) [Norgestimate], the ALDHbr is 0.91.

With `CC(CN(C)C)C(C)(O)Cc1ccc(Cl)cc1` (stereo unspecified) [Clobutinol hydrochloride], the ALDHbr was found to be 0.952.

Take `CCC(=O)O[C@]1(C(=O)CCl)[C@@H](C)C[C@H]2[C@@H]3CCC4=CC(=O)C=C[C@]4(C)[C@@]3(F)[C@@H](O)C[C@@]21C` [Clobetasol propionate]: the ALDHbr is 0.669. With `CN1CCC(=C2c3ccccc3C=Cc3ccccc32)CC1` [Cyproheptadine hydrochloride] the figure was 1.01; with `C[C@@H](CN1CC(=O)NC(=O)C1)N1CC(=O)NC(=O)C1` [Dexrazoxane hydrochloride], 0.949; with `CC1COc2c(N3CCN(C)CC3)c(F)cc3c(=O)c(C(=O)O)cn1c23` (stereo unspecified) [Ofloxacin], 0.989. In the case of `CC1(C)O[C@@H]2C[C@H]3[C@@H]4C[C@H](F)C5=CC(=O)CC[C@]5(C)[C@H]4[C@@H](O)C[C@]3(C)[C@]2(C(=O)CO)O1` [Flurandrenolide], the ALDHbr stood at 0.609. In the case of `CCCCNc1ccc(C(=O)OCCN(C)C)cc1` it was 1.11.

With `O=C(O[C@@H]1C[C@@H]2C[C@H]3C[C@H](C1)N2CC3=O)c1c[nH]c2ccccc12` [Dolasetron mesilate], the ALDHbr is 0.744. With `Cn1c(=O)c2c(ncn2CC(O)CO)n(C)c1=O` (stereo unspecified) [Diprophylline] the figure was 0.905; with `CC(=O)O[C@H]1C[C@@H]2CC[C@@H]3[C@H](CC[C@@]4(C)[C@H]3C[C@H]([N+]3(C)CCCCC3)[C@@H]4OC(C)=O)[C@@]2(C)C[C@@H]1N1CCCCC1` [Vecuronium bromide], 0.931.

For `Fc1ccc(C(c2ccc(F)cc2)N2CCN(C/C=C/c3ccccc3)CC2)cc1` [Flunarizine dihydrochloride], the ALDHbr stood at 1.01. With `C=C1c2cccc(O)c2C(O)=C2C(=O)[C@]3(O)C(O)=C(C(N)=O)C(=O)[C@@H](N(C)C)[C@@H]3[C@@H](O)[C@H]12` [Methacycline hydrochloride] the figure was 0.617.
